According to the supplement of paper PMC4604168 (melanoma cell lines):
This is one part of the list. Repeats are few or missing, and single values can be far off.

Columns and labels:
Test in all cases: cell count relative to DMSO control; melanoma cells; higher = more viable cells
Conditions in all cases: library dose: standard library concentration; 72 h
[1] = test system: SkMel28
[2] = test system: SkMel2
[3] = test system: SkMel30
[4] = test system: SkMel5
[5] = test system: UACC257
[6] = test system: UACC62
[7] = test system: WM115
[8] = test system: WM1716
[9] = test system: WM1745
[10] = test system: WM3526
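Also: cells treated in 1,536-well plates, then fixed and DAPI-stained, with nuclei counted from automated high-throughput microscope images.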

| SMILES | cell count [1] [%] | cell count [2] [%] | cell count [3] [%] | cell count [4] [%] | cell count [5] [%] | cell count [6] [%] | cell count [7] [%] | cell count [8] [%] | cell count [9] [%] | cell count [10] [%] |
| --- | --- | --- | --- | --- | --- | --- | --- | --- | --- | --- |
| Cn1c(=O)n(-c2ccc(C(C)(C)C#N)cc2)c2c3cc(-c4cnc5ccccc5c4)ccc3ncc21 + Cc1ccc(NC(=O)c2cccc(N(C)C)c2)cc1NC(=O)c1ccc(O)cc1 [ZM336372] (first compound 0.02 µM, partner dose 10 µM) | 85.1 | 73.1 | 95.6 | 70 | 107 | 74.9 | 72.4 | 86.2 | 80.8 | 76.3 |
| CC(C)C[C@H](NC(=O)[C@H](Cc1ccccc1)NC(=O)c1cnccn1)B(O)O [Bortezomib] + COc1cc2c(Oc3ccc4[nH]c(C)cc4c3F)ncnc2cc1OCCCN1CCCC1 [cediranib] (first compound 0.005 µM, partner dose 2 µM) | 43.6 | 51.8 | 34.1 | 29.4 | 90.6 | 76.5 | 35.6 | 17.6 | 24.2 | 22.4 |
| Cc1cn(-c2cc(NC(=O)c3ccc(C)c(Nc4nccc(-c5cccnc5)n4)c3)cc(C(F)(F)F)c2)cn1 [nilotinib] + NCC(=O)Nc1ccc(-n2nc(C(F)(F)F)cc2-c2ccc3c(ccc4ccccc43)c2)cc1 [OSU03012] (first compound 1 µM, partner dose 5 µM) | 21 | 26.3 | 29.5 | 38.5 | 84.6 | 35.2 | 57.2 | 71.1 | 57.4 | 44.7 |
| CC(C)C[C@H](NC(=O)[C@H](Cc1ccccc1)NC(=O)c1cnccn1)B(O)O [Bortezomib] + Cn1nnc2c(C(N)=O)ncn2c1=O [temozolomide] (first compound 0.005 µM, partner dose 10 µM) | 34.2 | 26.1 | 24.1 | 28.5 | 65.8 | 66.7 | 29.2 | 19.1 | 15.7 | 24.1 |
| CC(C)C[C@H](NC(=O)[C@H](Cc1ccccc1)NC(=O)c1cnccn1)B(O)O [Bortezomib] + C=C(c1ccc(C(=O)O)cc1)c1cc2c(cc1C)C(C)(C)CCC2(C)C [Bexarotene] (first compound 0.005 µM, partner dose 10 µM) | 29 | 32.9 | 27.5 | 25.9 | 60.2 | 64.6 | 18.6 | 15.7 | 14.5 | 18.1 |
| Cn1c(=O)n(-c2ccc(C(C)(C)C#N)cc2)c2c3cc(-c4cnc5ccccc5c4)ccc3ncc21 + CC(C)C[C@H](NC(=O)[C@H](Cc1ccccc1)NC(=O)c1cnccn1)B(O)O [Bortezomib] (first compound 0.02 µM, partner dose 0.005 µM) | 31.3 | 39.4 | 46.9 | 37.8 | 73 | 51.2 | 33.8 | 32.1 | 37.9 | 31.9 |
| Cn1c(=O)n(-c2ccc(C(C)(C)C#N)cc2)c2c3cc(-c4cnc5ccccc5c4)ccc3ncc21 + CC1(C)NC(=O)N(c2ccc([N+](=O)[O-])c(C(F)(F)F)c2)C1=O [nilutamide] (first compound 0.02 µM, partner dose 5 µM) | 33.4 | 54.8 | 57 | 51.2 | 86.9 | 59.8 | 50.7 | 56.6 | 56.9 | 61.2 |
| COc1ccc(C2=N[C@@H](c3ccc(Cl)cc3)[C@@H](c3ccc(Cl)cc3)N2C(=O)N2CCNC(=O)C2)c(OC(C)C)c1 [Nutlin-3] + COc1ccc(Cl)c(Nc2nc3ccccc3nc2NS(=O)(=O)c2cccc(NC(=O)C(C)(C)N)c2)c1 [XL147] (first compound 0.5 µM, partner dose 4 µM) | 43.3 | 88.2 | 117 | 63.9 | 79.7 | 65.9 | 72 | 76.7 | 101 | 75.2 |
| Cn1c(=O)n(-c2ccc(C(C)(C)C#N)cc2)c2c3cc(-c4cnc5ccccc5c4)ccc3ncc21 + CN1CCN(c2ccc3nc(-c4c(N)c5c(F)cccc5[nH]c4=O)[nH]c3c2)CC1 [Dovitinib] (first compound 0.02 µM, partner dose 0.5 µM) | 32 | 50.9 | 70.5 | 84.1 | 99.4 | 69.6 | 81.8 | 65.2 | 62.7 | 78.8 |
| CC(C)C[C@H](NC(=O)[C@H](Cc1ccccc1)NC(=O)c1cnccn1)B(O)O [Bortezomib] + Nc1ccn([C@@H]2O[C@H](CO)[C@@H](O)C2(F)F)c(=O)n1 [gemcitabine] (first compound 0.005 µM, partner dose 0.002 µM) | 22.9 | 71.4 | 29.8 | 32.4 | 77.3 | 64.1 | 26.8 | 13.6 | 20.3 | 22.4 |
| Cc1cn(-c2cc(NC(=O)c3ccc(C)c(Nc4nccc(-c5cccnc5)n4)c3)cc(C(F)(F)F)c2)cn1 [nilotinib] + O=C(Nc1cccc(Cl)c1)Nc1ncc(CCNc2ncnc3ccsc23)s1 [SNS314] (first compound 1 µM, partner dose 0.004 µM) | 47.8 | 63 | 92.7 | 63.4 | 62.7 | 83 | 79.4 | 50.4 | 66.7 | 90.7 |
| Cc1cc(Nc2cc(N3CCN(C)CC3)nc(/C=C/c3ccccc3)n2)n[nH]1 + Nc1ncn([C@H]2C[C@H](O)[C@@H](CO)O2)c(=O)n1 [decitabine] (first compound 0.2 µM, partner dose 0.5 µM) | 83.4 | 86.5 | 92.9 | 85.4 | 90.7 | 71.9 | 72.5 | 74.1 | 75.3 | 76 |
| Cn1c(=O)n(-c2ccc(C(C)(C)C#N)cc2)c2c3cc(-c4cnc5ccccc5c4)ccc3ncc21 + C[C@@H](Oc1cc(-c2cnn(C3CCNCC3)c2)cnc1N)c1c(Cl)ccc(F)c1Cl [Crizotinib] (first compound 0.02 µM, partner dose 1 µM) | 36.7 | 74.3 | 77.4 | 60.5 | 91.8 | 87.8 | 56.7 | 66 | 65.8 | 72 |
| Cc1cn(-c2cc(NC(=O)c3ccc(C)c(Nc4nccc(-c5cccnc5)n4)c3)cc(C(F)(F)F)c2)cn1 [nilotinib] + O=C(CCCCCCC(=O)Nc1ccccc1)NO [vorinostat] (first compound 1 µM, partner dose 0.4 µM) | 73.2 | 68 | 76.9 | 72.6 | 72.5 | 65.3 | 118 | 114 | 98 | 79.5 |
| Cc1cc(Nc2cc(N3CCN(C)CC3)nc(/C=C/c3ccccc3)n2)n[nH]1 + NCC(=O)Nc1ccc(-n2nc(C(F)(F)F)cc2-c2ccc3c(ccc4ccccc43)c2)cc1 [OSU03012] (first compound 0.2 µM, partner dose 5 µM) | 32.8 | 48.4 | 62 | 60.6 | 91.1 | 56.9 | 67.2 | 82.4 | 87.6 | 54.5 |
| Cc1cc(Nc2cc(N3CCN(C)CC3)nc(/C=C/c3ccccc3)n2)n[nH]1 + CC(C)(C)c1cnc(CSc2cnc(NC(=O)C3CCNCC3)s2)o1 [SNS-032] (first compound 0.2 µM, partner dose 0.05 µM) | 47 | 63.7 | 105 | 101 | 91.4 | 78.2 | 61 | 83.8 | 53.8 | 93.6 |
| Cc1cn(-c2cc(NC(=O)c3ccc(C)c(Nc4nccc(-c5cccnc5)n4)c3)cc(C(F)(F)F)c2)cn1 [nilotinib] + Cn1cnc2c(F)c(Nc3ccc(Br)cc3Cl)c(C(=O)NOCCO)cc21 [selumetinib] (first compound 1 µM, partner dose 0.075 µM) | 38.4 | 22.8 | 54.4 | 57.4 | 97.7 | 56.9 | 62.1 | 95.6 | 58.6 | 48.8 |
| CC(C)C[C@H](NC(=O)[C@H](Cc1ccccc1)NC(=O)c1cnccn1)B(O)O [Bortezomib] + Nc1ncn([C@H]2C[C@H](O)[C@@H](CO)O2)c(=O)n1 [decitabine] (first compound 0.005 µM, partner dose 0.5 µM) | 27.8 | 49.8 | 39.6 | 29.1 | 63.1 | 56.9 | 31.5 | 20.7 | 12.5 | 35.9 |
| Cc1cc(Nc2cc(N3CCN(C)CC3)nc(/C=C/c3ccccc3)n2)n[nH]1 + C=C(c1ccc(C(=O)O)cc1)c1cc2c(cc1C)C(C)(C)CCC2(C)C [Bexarotene] (first compound 0.2 µM, partner dose 10 µM) | 63.7 | 74.8 | 99.5 | 70.9 | 72.8 | 79.2 | 68.1 | 81.7 | 73.5 | 77.4 |
| COc1ccc(C2=N[C@@H](c3ccc(Cl)cc3)[C@@H](c3ccc(Cl)cc3)N2C(=O)N2CCNC(=O)C2)c(OC(C)C)c1 [Nutlin-3] + CCCCCCCCc1ccc(CCC(N)(CO)CO)cc1 [fingolimod] (first compound 0.5 µM, partner dose 10 µM) | 0.235 | 0.46 | 9.91 | 51.5 | 64.5 | 16.4 | 9.34 | 39 | 3.17 | 23.4 |
| Cc1cc(Nc2cc(N3CCN(C)CC3)nc(/C=C/c3ccccc3)n2)n[nH]1 + NC1(c2ccc(-c3nc4ccn5c(=O)[nH]nc5c4cc3-c3ccccc3)cc2)CCC1 [MK2206] (first compound 0.2 µM, partner dose 2 µM) | 46 | 68.5 | 71.3 | 61.1 | 94.5 | 66.8 | 63.7 | 91.7 | 66.4 | 65.7 |
| CC(C)C[C@H](NC(=O)[C@H](Cc1ccccc1)NC(=O)c1cnccn1)B(O)O [Bortezomib] + COCC[n+]1c2c(n(Cc3cnccn3)c1C)C(=O)c1ccccc1C2=O [YM155] (first compound 0.005 µM, partner dose 0.002 µM) | 19.6 | 20.3 | 24.1 | 20.4 | 30.4 | 47.5 | 25.2 | 14 | 30.1 | 20.4 |
